Source: publication PMC12136788
The other results are listed elsewhere or left out.

T1: UNK ZnF1-3 (human, UniProt Q9C0B0 31-174)
T1 sequence: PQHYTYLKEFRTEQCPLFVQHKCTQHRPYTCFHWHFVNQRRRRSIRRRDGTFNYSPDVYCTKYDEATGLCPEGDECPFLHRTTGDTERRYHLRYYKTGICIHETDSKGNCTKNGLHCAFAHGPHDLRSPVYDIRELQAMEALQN

B1: 45141516_45141636_2342_3pUTR_ENSMUSG00000022664_ENSMUST00000023344|mouse|control|control (ssRNA)
RNA: GGGAGUUCUACAGUCCGACGAUCAAGGUAAUGAUGUCAAGAUUUUGUAAAUGUACAAACCAAGGAUAGAGCAAACAAACAAACAAACAAACAAUUCUACAAUGGCUUAGGUGAAUUAAAAUACAAGUGCUAAGUAUGAUAACACAACAGAGGAUUGAGCAUCA
B2: chr9:58049150:58049151:-_ENSMUSG00000051243_ENSMUST00000114144|mus_mus|motif|central (ssRNA)
RNA: GGGAGUUCUACAGUCCGACGAUCACUUGCAGUGUGAUGCUGUGGGGCUGCGAGCCGGUCUCCAGACUCAGGUGACAGUCGGAGGGAGCUUCUGGCAUCUGUUGCCCGUCUUCAACCCUGCAGAACCCAGUGCCGGUCCAGACACAACAGAGGAUUGAGCAUCA
B3: chr2:42509997:42509998:+_ENSG00000143924_ENST00000318522|hu_mus|hu_hu_hu_mus_True|38_38 (ssRNA)
RNA: GGGAGUUCUACAGUCCGACGAUCUCGCUGAGUCCUCUCCUCAUAAUUAAACAGGACUACCACUGAGGCGAUAAAAUAAACUAUCUCCCCUGUGGGAAGAAGGUAAACAUUCGCUCUACAGUCCUUUCCUCGAUAACCGUAUACCAACAGAGGAUUGAGCAUCA
B4: chr1:178670160:178670161:-_ENSMUSG00000057335_ENSMUST00000057037|mus_hu|FALSE|FALSE (ssRNA)
RNA: GGGAGUUCUACAGUCCGACGAUCUUGAGGUCUUGGAUCACCAGAUCGACCGUUGUUUCCUUCUGGUGUUUUGGAAUGAACUAAUGGAGGAAUCUUUCGGAAGUUGAGGCUUUCAUCAAAAACACGAUCAACCAACUCUUCUCUCAACAGAGGAUUGAGCAUCA
B5: chr7:135612270:135612271:-_ENSG00000105887_ENST00000393085|hu_mus|hu_hu_hu_mus_False|78_78 (ssRNA)
RNA: GGGAGUUCUACAGUCCGACGAUCGUUUUUUUCUGAGAUGUUAAAUAGUACUUCAGUAACAAAACUUACUUAACCUUUUAUUAAUGCGUGUUGUACCAAAAGCAGACAUUUUAGCUUCAUUUAUUCAAAAAUAUUAACAUUAAGCAACAGAGGAUUGAGCAUCA
B6: 119122356_119122476_1676_3pUTR_ENSG00000182197_ENST00000378204|human|control|control (ssRNA)
RNA: GGGAGUUCUACAGUCCGACGAUCGAAUCCUUGUGCUUUUGCCAGUCUUUGCCAUGCUUGCAGGUGGUGAGGAGCACAACGUCCUCCCCGUUAUGGACGUGAUAUAAGGCAUUCCUGGUGUCUGAUCCUAUCCCUGUCAGGUACCAACAGAGGAUUGAGCAUCA
B7: chr17:3197573:3197574:+_ENSMUSG00000046201_ENSMUST00000076734|mus_mus|FALSE|FALSE (ssRNA)
RNA: GGGAGUUCUACAGUCCGACGAUCCCUCACAAGAUUCUCCCUCAUGUCCACAGGAGGUCUUCCAAAAUGAUCCCUAGCAUCUAAUGGAGGCCUUCCAGGGCCUUCUCUGGGAUCUAGACGUCGCCCAACCACAUCCCUAACAUCCAACAGAGGAUUGAGCAUCA
B8: chr12:53618122:53618123:+_ENSMUSG00000035133_ENSMUST00000110725|mus_mus|motif|central (ssRNA)
RNA: GGGAGUUCUACAGUCCGACGAUCUCUUGUUCCCUCUAAGUUGAUAUAUUCUUCAUAAUCAGGAUGAUUUUUUAAUUUAUUACGGACAGUUUUCCAAGUUGCAUGAUAAUCUCUCACAGUCUGUACAAGUUUUUCAAACUUGUCCAACAGAGGAUUGAGCAUCA
B9: chr19:8913615:8913616:-_ENSMUSG00000071658_ENSMUST00000096259|mus_hu|mus_mus_mus_hu_False|1_58 (ssRNA)
RNA: GGGAGUUCUACAGUCCGACGAUCAGGGUACCAAAACCUUCUGCCUGAAAUGGGUGCCCCACCCAGUAGGGAGUUGCAGCUAAAAAUAUCUGAUGCAGAAGCAGUGACUAUACGAAAGGAGGCCCCUGGGGAGGGCCCGAGAUCCAACAGAGGAUUGAGCAUCA
B10: chr12:39756943:39756944:-_ENSG00000139116_ENST00000544797|hu_mus|hu_hu_hu_mus_False|38_88 (ssRNA)
RNA: GGGAGUUCUACAGUCCGACGAUCGGUUUGGCUGUUACCCCCAAGGGAAUCCUGUAGGAGUCUUGUCAGCUUAGAGUCUCUGUAAGGGACAUGGGUGGCCCUCUUGCUCUUGUCCCCCAAGGCGCUGAUUACAUUCCCAAGAGCCAACAGAGGAUUGAGCAUCA
B11: 180426612_180426732_171_5pUTR_ENSMUSG00000038914_ENSMUST00000103055|mouse|control|control (ssRNA)
RNA: GGGAGUUCUACAGUCCGACGAUCACAUAAAAUUAUAGACCUGGGGCCAGGUCAAGCAGACGGCCAAGCCUCACCCCACUGUUGUCAGUCACAGUUCAUCAAUGAGAAGAUUCCGGAGCUUCGAACAACCAAAGGGACAGUGGGCAACAGAGGAUUGAGCAUCA
B12: chr1:213174215:213174216:-_ENSG00000174606_ENST00000366962|hu_hu|FALSE|FALSE (ssRNA)
RNA: GGGAGUUCUACAGUCCGACGAUCUGUCUUUUCUACUUUUGGUACCUGCUGUACCUCAUACACACAGUUCUGUGAGAUACCUAGGUUUGGGGGCCAAAUUGGAAUAGAUAAAAUUCUUUGUCCCCGUGAAGACUGUUCCUGGCCCAACAGAGGAUUGAGCAUCA
B13: chr12:82822756:82822757:-_ENSMUSG00000042724_ENSMUST00000035987|mus_hu|motif|central (ssRNA)
RNA: GGGAGUUCUACAGUCCGACGAUCGGCUGAGGAGAGGGAGCAGCAGACAGAUUUGGCUGAGUGACUCUGCAGGGUCACUCGGAAGGCAAGGAAGACUGUGGAGGGUGGGGGACAUGCAUGCACCCCUUCCUCCCCUACACAGCCCAACAGAGGAUUGAGCAUCA
B14: chr4:48472875:48472876:-_ENSMUSG00000028345_ENSMUST00000030030|mus_hu|FALSE|FALSE (ssRNA)
RNA: GGGAGUUCUACAGUCCGACGAUCACUAUUUAGCCUAGAGCCAUCUUCAAGGGUCUCUGUUACAAAUUUCCUUAUCAUUUCUAUCCAACUGCAAUCCUUCUGCAAAGUUGACGCAUUUGCCAGGGAGACCAUGAUAUCAGACAGCAACAGAGGAUUGAGCAUCA
B15: chr1:220275481:220275482:+_ENSG00000067704_ENST00000302637|hu_mus|FALSE|FALSE (ssRNA)
RNA: GGGAGUUCUACAGUCCGACGAUCAAACGCCGAUUUCUGCUUUUCAAUGGCUGCCUGAGCAAAUGAUCUGGCUUUCUCCCUGAUCUCCAUGGCUGAAAGACUCUGGGCAUCUACACCGAGCUCUGAUAACACUUUUGUUUCAAUCAACAGAGGAUUGAGCAUCA
B16: chr11:87793471:87793472:-_ENSMUSG00000020483_ENSMUST00000020775|mus_mus|mus_mus_mus_hu_False|28_88 (ssRNA)
RNA: GGGAGUUCUACAGUCCGACGAUCUGGACUUGAAAAUAAAAGAAUAAGCUAGAUUUCCCACCCCCCCACAUUGUCAACCCUACACGAGAGUUUUGAAGGCGACUCAUGAAUCAGCAGAGCUCAAACGGCAAUGACCACCCCACCCAACAGAGGAUUGAGCAUCA
B17: chr2:181324804:181324805:-_ENSMUSG00000000823_ENSMUST00000128553|mus_mus|FALSE|FALSE (ssRNA)
RNA: GGGAGUUCUACAGUCCGACGAUCGCCCCUUACCCCUUGGCACCGCUGAUAGUGGUACUUGAGCCCAUAGAUGCUGGGGAACUCUAGCCAGCACCCUGAGUUUGGACACUUCACCCUUGAGUGUGCCUUGAAUUCAUCUUUCCACAACAGAGGAUUGAGCAUCA
B18: chr7:141438946:141438947:+_ENSG00000106028_ENST00000265304|hu_mus|hu_hu_hu_mus_True|58_98 (ssRNA)
RNA: GGGAGUUCUACAGUCCGACGAUCGACGAAAUACCUGACAGGUCUUCCUUCGAAACAUGGCUUCUGUUUUUCUUACAGUCUAAUCUUUAGGCUUUUCCUAAAGGAAAGAAAGAAAAGAGAAAAAUGAUAAAUCAAGAAACUACACAACAGAGGAUUGAGCAUCA
B19: chr8:101932826:101932827:-_ENSG00000164924_ENST00000353245|hu_mus|FALSE|FALSE (ssRNA)
RNA: GGGAGUUCUACAGUCCGACGAUCAAUAUAGAAAUUCAAAUAGAAGUAACAUAAACCUGUCAUAAAUCGUAAACAAAAAAACUAUCUGUGGGACAGCAUGGAUGACAAAUGGUCUACUGUGUAAAUUUUAGAAUGAGGCAGACACAACAGAGGAUUGAGCAUCA
B20: chr4:76572280:76572281:-_ENSG00000138757_ENST00000395719|hu_hu|motif|central (ssRNA)
RNA: GGGAGUUCUACAGUCCGACGAUCCUUUAGCUCAUUUUCAUCAAUAUCAUGUGGCAAGUUACCAACAAAAAGUUGAUGACGGUCUGGAUAGCGAAUUAUUCUACGGUUGUCAGAGUCAUUCUGUUCCAUAUCUCCUCUGCCUGGCAACAGAGGAUUGAGCAUCA
B21: chr1:167409666:167409667:+_ENSMUSG00000026568_ENSMUST00000027853|mus_mus|FALSE|FALSE (ssRNA)
RNA: GGGAGUUCUACAGUCCGACGAUCUUCUUGGUUAUAUCUCCAAAUCCGAAACAGCUGAGAGGCUCCUGCUGACCCCACAAAGAAAUUAACAGCGAACAAACUCCAAUUUUUUGGUAUAAUUACAAGUGAAUAUCUUGACCAAAUCAACAGAGGAUUGAGCAUCA
B22: chr2:176857102:176857103:-_ENSG00000144320_ENST00000272748|hu_mus|motif|central (ssRNA)
RNA: GGGAGUUCUACAGUCCGACGAUCAGAAUAGAUAAUUAAUCUUCCAACCCAUAAUUUUUGCAAUCUCUGAUUUUUUUCUCGGAAUUCUUCCAAUGCUUGAAUUUCCUUAUCUAUAUUUUCUAGAACUUCUACUGUUGAAGGUUUCAACAGAGGAUUGAGCAUCA

target: T1, UNK ZnF1-3; assay: nsRBNS (natural sequence RNA bind-n-seq); RBNS binding buffer (assumed for nsRBNS): 25 mM Tris pH 7.5, 150 mM KCl, 3 mM MgCl2, 0.01% Triton X-100, 500 ug/ml BSA, 20 U/ml SUPERase-In, 4 C; UNK is unkempt and MSI1 is Musashi-1; names of the RNAs are library labels; protein concentration not given here; high values mean tight binding

**Q.** For B1, which binding signal is on record?
**A.** 2.07 enrichment R

**Q.** B2 was tested. Which binding signal did it give?
**A.** 0.747 enrichment R

**Q.** B3 was tested. Which binding signal did it give?
**A.** 1.07 enrichment R

**Q.** For B4, which binding signal is on record?
**A.** 0.782 enrichment R

**Q.** With B5 as the binder, how does the binding signal read?
**A.** 0.888 enrichment R

**Q.** Which binding signal does the source give for B6 here?
**A.** 0.416 enrichment R

**Q.** B7 was tested. Which binding signal did it give?
**A.** 0.979 enrichment R

**Q.** B8 was tested. Which binding signal did it give?
**A.** 1.12 enrichment R

**Q.** How did the binding signal turn out when B9 was run?
**A.** 1.16 enrichment R

**Q.** How did the binding signal turn out when B10 was run?
**A.** 0.821 enrichment R

**Q.** With B11 as the binder, how does the binding signal read?
**A.** 1.13 enrichment R

**Q.** B12 was tested. Which binding signal did it give?
**A.** 0.653 enrichment R

**Q.** With B13 as the binder, how does the binding signal read?
**A.** 0.835 enrichment R

**Q.** Which binding signal does the source give for B14 here?
**A.** 0.819 enrichment R

**Q.** With B15 as the binder, how does the binding signal read?
**A.** 0.546 enrichment R

**Q.** How did the binding signal turn out when B16 was run?
**A.** 1.53 enrichment R

**Q.** For B17, which binding signal is on record?
**A.** 0.672 enrichment R

**Q.** Which binding signal does the source give for B18 here?
**A.** 0.542 enrichment R

**Q.** With B19 as the binder, how does the binding signal read?
**A.** 2.05 enrichment R

**Q.** Which binding signal does the source give for B20 here?
**A.** 0.805 enrichment R

**Q.** For B21, which binding signal is on record?
**A.** 1.53 enrichment R

**Q.** With B22 as the binder, how does the binding signal read?
**A.** 0.385 enrichment R
